PubChem BioAssay AID652104 (National Center for Advancing Translational Sciences (NCATS), 2013)
The campaign covered roughly 410,000 compounds. About 7,200 (1.8%) were called active. Inconclusive means that the source gave no clear call. Such entries were picked first, then a sample of the others. The call rests on the fitted dose curve; in most records, active means well fitted activation curve with a large enough effect; inconclusive means small, poorly fitted or top-dose-only effect, or another doubt; inactive means no such curve, though single readings can be large or run the other way. No potency is given beside an inconclusive call; the fits are too rough.

Experiment: qHTS of TDP-43 Inhibitors; further: nearly all actives have a fitted effect of over 50% in size
Conditions: TDP-43 expressing yeast growth rescue, BacTiter-Glo, 24 h; series mostly up to 46.1 µM
How it was run: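 Yeast expressing TDP-43 (pregrown in raffinose, seeded at OD600=0.02 in galactose medium) exposed to compounds 24 hr at 30 deg C. Growth read by BacTiter-Glo luminescence; rescue of toxicity appears as increased signal.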
Potency means the concentration at half of the fitted maximal effect; tags describe the fitted curve by direction and shape.

Structure (SMILES) | Potency
O=C(CCS(=O)(=O)c1cc(Br)cc2c1N(C(=O)C1CC1)CC2)N1CCN(c2cccc(C(F)(F)F)c2)CC1 | inactive
CCOc1cc(N2CCOCC2)c(OCC)cc1NS(=O)(=O)c1cc(NC(C)=O)ccc1OC | inactive
O=C(CCc1ccccc1)OCC(=O)c1cccc([N+](=O)[O-])c1 | inconclusive [activator, single point]
COc1ccc(CCNC(=O)CS(=O)(=O)Cc2nc(-c3cccc(Cl)c3)oc2C)cc1OC | inactive
COC(=O)[C@]12CCCCC=C1N(Cc1ccc(Cl)cc1Cl)C(=O)[C@H](CC(=O)N1CCOCC1)C2 | active: 17.8 µM
COc1ccccc1N1CCN(C(=O)CNS(=O)(=O)c2ccc(Br)s2)CC1 | inactive
CCN(CC)CCP(=O)(c1ccccc1)c1ccccc1 | inactive
CCc1nnc2c(Nc3ccccc3Br)nc3ccccc3n12 | inconclusive [activator, partial curve, poor fit]
CCc1ccc(Nc2ncnc3nc[nH]c23)cc1 | inactive
C=CCNC(=O)C(=O)NCC(c1ccc2c(c1)OCO2)N1CCN(c2ccc(F)cc2)CC1 (configuration not stated) | inconclusive [activator, single point]
C[C@H](CO)N1C[C@H](C)[C@@H](CN(C)Cc2ccncc2)Oc2c(cccc2N(C)C)C1=O | inconclusive [activator, partial curve, poor fit]
CC(C)(C)Nc1nc(Cl)nc(NCc2ccccc2)n1 | inconclusive [activator, single point]
CCOCC(=O)Nc1ccc(C)c(Cl)c1 | inconclusive [activator, partial curve]
O=C(c1ccccc1)c1cc2ccccc2oc1=O | inconclusive [activator, partial curve]
Brc1ccc(Oc2nsnc2N2CCOCC2)cc1 | active: 11.2 µM
Cc1ccc(SCC(=O)c2ccc[nH]2)cc1 | inconclusive [activator, partial curve]
CC(=O)n1cc(N(C(=O)CCl)c2ccc(Cl)cc2)c2ccccc21 | active: 22.4 µM
CC(Cc1n[nH]c(=S)o1)c1ccccc1 (configuration not stated) | inconclusive [activator, single point]
CCOC(=O)c1cc(-c2ccc(C)cc2)n(CC(=O)Nc2ccc(OC)cc2OC)c1C | inactive
NNC(=S)NC1CCCCCCCCCCC1 | inconclusive [activator, partial curve]
CC1(C)Cc2ccccc2C(=NCCCC(=O)O)N1 | inactive
Cc1cccc2c1nc(-c1ccccc1)n1cnnc21 | active: 14.1 µM
COc1ccc(-c2ccc(OC(=O)NC3CCS(=O)(=O)C3)cc2)cc1 (configuration not stated) | inconclusive [activator, single point]
CC(Oc1cccc(Cl)c1)C(=O)N1CCN(c2ncccn2)CC1 (configuration not stated) | inconclusive [activator, partial curve]

Structure (SMILES) | Potency
Cc1ccc(Nc2c(-c3ccc(C)o3)nc3cnccn23)cc1 | active: 22.4 µM
COc1ccc(Cl)cc1NC(=S)NCc1ccco1 | inconclusive [activator, single point]
Cc1ccc(N2C(=O)c3ccccc3C2C(=O)c2cc(C)ccc2O)cc1 (configuration not stated) | inconclusive [activator, full curve, poor fit]
Cc1ccc(CNC(=O)c2ccc(Cl)cc2[N+](=O)[O-])cc1 | inconclusive [activator, partial curve, poor fit]
c1ccc(Oc2cccc(OCCCn3cncn3)c2)cc1 | inconclusive [activator, single point]
CCOc1ccc2c(CC)cc(=O)oc2c1OCC | inconclusive [activator, partial curve]
COc1cc(F)ccc1-c1cc(C(=O)NCc2ccc(C(F)(F)F)cc2)[nH]n1 | inconclusive [activator, partial curve, poor fit]
NC(=O)/C(=N\OC(=O)c1ccco1)c1nc(-c2ccc(Br)cc2)cs1 | active: 15.8 µM
CC(=O)Nc1ccc(SCC(=O)c2cc(C)ccc2C)cc1 | inconclusive [activator, single point]
Cc1ccc(NC(=O)COc2ccc(Cl)cc2Cl)cc1S(=O)(=O)N1CCOCC1 | active: 14.1 µM
CCC(C)C(CO)NCCCn1cnc2c(OCc3ccccc3)ncnc21 (configuration not stated) | inconclusive [activator, full curve, poor fit]
Cc1cc(C)n(-c2ccc(C(=O)Nc3ccc4c(c3)OCO4)cc2)n1 | inconclusive [activator, partial curve]
O=C(/C=C/c1cccc([N+](=O)[O-])c1)Nc1cccc(NC(=O)c2cccs2)c1 | inactive
CCC(Sc1nc2n[nH]c(C)c2c(=N)n1-c1cc(Cl)ccc1C)C(=O)N1CCOCC1 (configuration not stated) | inconclusive [activator, full curve, poor fit]
COc1ccc(C)c2sc(N3CCN(C(=O)c4ccco4)CC3)nc12 | active: 22.4 µM
CCOc1ccc(CNC(=O)CSc2c3c(nc4ccc(Cl)cc24)CCCC3)cc1 | inactive
S=C(NCCc1ccccc1)Nc1ccc(Cl)cc1Cl | inconclusive [activator, single point]
Cc1cccc(C)c1N1C(=O)C(Cl)=C(N2CCCC2)C1=O | inconclusive [activator, partial curve]
Cc1ccc(Cn2c(CN3CCN(c4cccc(Cl)c4)CC3)nc3c2c(=O)n(C)c(=O)n3C)cc1 | inconclusive [activator, single point]
COc1ccc2c(c1)CCc1cnc(N)nc1-2 | inconclusive [activator, partial curve]
COc1cc(NC(=O)CSc2nc(=O)n(CCCN3CCOCC3)c3c2CCC3)cc(OC)c1 | inactive
CC1CCCN(C2(O)C(=O)Nc3ccc(Cl)cc32)C1 (configuration not stated) | inconclusive [activator, full curve]
O=C(O)C1C2C=CC(C2)C1C(=O)NCCCc1ccccc1 (configuration not stated) | inconclusive [activator, full curve]
COc1ccc(C(C)=O)cc1CSc1nnc(Nc2c(C)cccc2C)s1 | inconclusive [activator, full curve]

Structure (SMILES) | Potency
CC(Sc1cccc[n+]1[O-])C(=O)Nc1cccc(S(=O)(=O)N2CCOCC2)c1 (configuration not stated) | inconclusive [activator, single point]
CNC(=O)CN1C(=O)C2C3C=CC(C3)C2C1=O (configuration not stated) | inconclusive [activator, partial curve]
Cc1sc2nc(CSCC(=O)N(CCC#N)c3ccccc3)[nH]c(=O)c2c1C | inconclusive [activator, single point]
Cc1ccc(NC(=O)CN2C(=O)CC(c3ccc(C)c(C)c3)=Nc3ccccc32)cc1 | inconclusive [activator, single point]
CCCCCCCSc1nnc(N)s1 | inconclusive [activator, single point]
Clc1ccccc1C1CC(c2ccccc2)=Nc2ccccc2N1 (configuration not stated) | inconclusive [activator, single point]
O=c1ccc(/C=C/c2ccccc2)nn1Cc1ccccc1 | active: 20 µM
Cc1ccc2c(=O)cc(C(=O)Nc3c(C(=O)c4ccc(F)cc4)oc4ccccc34)oc2c1C | inactive
CN=c1nc(-c2ccccc2)n(-c2ccccc2)s1 | inactive
CC(C)(C)N(Cc1ccc2c(c1)OCO2)C(=O)/C=C\S(=O)c1ccccc1 (configuration not stated) | inconclusive [activator, single point]
O=C(Nc1ccc(F)cc1)Nn1cnnc1 | inactive
COC(=O)C(NNc1ccccc1)(NC(=O)c1cccc(F)c1)C(F)(F)F (configuration not stated) | inconclusive [activator, single point]
COc1cc(OC)c(NC(=O)Cc2cccs2)cc1Cl | inconclusive [activator, single point]
OC[C@@H]1CN(Cc2ccc(Cl)cc2)C[C@H](n2cnc3c(N4CCOCC4)ncnc32)O1 | inactive
Cc1ccccc1CSCC(=O)NNC(=S)NCC1CCCO1 (configuration not stated) | inconclusive [activator, partial curve]
Cc1cc(N2CCCCC2)nc2ccc(NC(=O)CCC(=O)NCCC(C)C)cc12 | inactive
O=C(/C=C/c1cn(-c2ccccc2)nc1-c1cccc(Cl)c1)N1CCN(c2ccccn2)CC1 | active: 14.1 µM
O=C1CCSC2(C(=O)N(Cc3ccc(F)cc3)c3ccccc32)N1c1cccc(F)c1 (configuration not stated) | inconclusive [activator, single point]
Cc1nc2c(OCc3ccc(C(F)(F)F)cc3)cccn2c1N(C)C(=O)CCC1CCCC1 | inactive
CN(C(=O)CNC(=O)c1ccc(Br)o1)C1CCCCC1 | inactive
O=C(NCc1cccc(Cl)c1)c1ccc2c(c1)OCO2 | inconclusive [activator, single point]
COc1ccc(OC)c(C2=Nn3c(nnc3C3CCCCC3)SC2)c1 | inconclusive [activator, single point]
COc1ccc(/C(N)=N/OC(=O)c2cc(-c3ccccc3)nc3ccccc23)cc1 | inconclusive [activator, single point]
Cc1cccc(SCC(=O)Nc2ccccc2[N+](=O)[O-])c1 | inconclusive [activator, single point]
